About 60 (0.1%) of roughly 46,000 compounds were called active. Another 3% or so got no clear call; they are omitted. The call rests on the fitted dose curve; in most records, active means well fitted inhibition curve with a large enough effect; inconclusive means small, poorly fitted or top-dose-only effect; inactive means no such curve, though single readings can be large or run the other way. Some of the results follow.

The nature of this test: Primary qHTS assay for Inhibitors of ovarian cancer metastasis using an organotypic tumor microenvironment (TME) model. Further: nearly all actives have a fitted effect of over 65% in size.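 On activity change, negative = inhibition: plate controls were DMSO wells for no effect and tomatine positive control wells for full effect.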 The note with it: SKOV3ip1-GFP adhesion/invasion on 3D omental model, fluorescence; series mostly up to 45.8 µM; activity change, negative = inhibition: at the top concentration. The gist of the method: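 qHTS, 4-pt dose (0.36-46 umol/L); SKOV3ip1-GFP, 1,200 cells/well, no FBS; primary omental fibroblast/mesothelial co-culture 48 h pre-grown; 2 h RT + 16 h 37 C; PBS wash, 4% PFA; GFP count 488/509 nm.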
Background: qHTS replaces the single test concentration by a dilution series.
For the molecule `CCn1c(C)c(C2N3CC4(C)CN2CC(C)(C3)C4=O)c2ccccc21` (stereo not drawn), the “activity change, negative = inhibition” value was inactive: 12.5%.
`CCc1nnc(NC(=O)CSc2nccn2-c2ccc(OC)cc2)s1`: the molecule was called inactive.
`CC(=O)c1cc2c(cc1N/C(=N/S(=O)(=O)c1ccc(Cl)cc1)c1ccc(F)cc1)OCO2`: the “activity change, negative = inhibition” value was inactive: 16.7%.
Same read-out and setting: in the case of `Cc1ccc(C)c(CN2C(=O)c3ccccc3S(=O)(=O)c3ccc(C(=O)N(C)C4CCCCC4)cc32)c1` it was inactive: -5.42%; in that of `CC(=O)c1cccc(-n2c(=O)c3c4c(sc3n(CC(=O)c3ccccc3)c2=O)CN(C(C)=O)CC4)c1`, inactive: -15.4%.
Consider `Cc1nc(C)c(-c2ccc(SCC(=O)Nc3ccc(Br)cc3)nn2)s1`, for which the result was inactive.
Take `CC1CCCN(CCCNC(=O)c2ccc3c(c2)N(Cc2ccccc2F)C(=O)c2ccccc2S3(=O)=O)C1` (stereo not drawn): the molecule was classed as inactive.
On the same count and under the same terms, in the case of `Cc1ccc(/C=C/c2onc(C)c2S(=O)(=O)N2CCC(C(=O)Nc3ccc(C)c(N(C)C)c3)CC2)cc1` it was “inactive”.
Consider `Cc1nn(-c2ccccc2)c(OC(=O)C(C)C)c1Sc1ccc(Cl)cc1`, for which the “activity change, negative = inhibition” value is inactive: 4.5%.
The same measure, in the same setting: then `Cc1ccc(CNC(=O)CCCCCn2c(=O)[nH]c3ccccc3c2=O)cc1`, with inactive: -0.167%; and `Cc1ccc(C)c(N2CCN(C(=O)c3ccc(NC(=O)c4nsc5ccccc45)cc3)CC2)c1`, with inactive: -6.21%; and `CCc1ccccc1NC(=O)Nc1c[nH]c(=O)[nH]c1=O`, with inactive: -2.42%.
`COc1cc(C(=O)Oc2c(Sc3ccccc3)c(C)nn2-c2ccccc2)cc(OC)c1OC`: the result was inactive.
`CC(C)(C)c1ccc(NC(=O)C2CCCN(c3cnccn3)C2)cc1` (stereo not drawn): the “activity change, negative = inhibition” value is inactive: -7.79%.
In the case of `CCOc1ccc(N2CC(NC(=O)CCc3ccccc3)CC2=O)cc1` (stereo not drawn), the “activity change, negative = inhibition” value is inactive: 0.442%.
On the same count and under the same terms, in the case of `Cc1cnc(-c2cc(N3CCN(C(=O)CCS(C)(=O)=O)CC3)ncc2Cl)c(C)c1` it was inactive: 16.6%; in that of `Cc1ccccc1-c1nc(CN2CCC(C(=O)NCc3ccccc3Cl)CC2)c(C)o1`, inactive: 2.61%.
On to `COC(=O)C(NC(=O)CC(C)C)(Nc1nc2c(s1)CCCC2)C(F)(F)F` (stereo not drawn), for which the “activity change, negative = inhibition” value was inactive: -10.5%.
Take `CCOC(=O)c1c(NC(=O)/C=C/c2ccc(OCC)cc2)sc(C)c1C`: the result was inactive.
On to `COC(=O)c1ccc(NC(=O)CCS(=O)(=O)c2ccc(Br)cc2)cc1`, for which the “activity change, negative = inhibition” value was inactive: 7.65%.
For `CC(=O)c1cc2c(cc1N/C(=N/S(=O)(=O)c1ccc(C)cc1)c1ccccc1)OCO2`, the “activity change, negative = inhibition” value was inactive: -20.1%.
With `Cc1cc(C)c(NC(=O)Cn2c(=O)n(CC(=O)NCc3ccccc3Cl)c(=O)c3sccc32)c(C)c1`, the molecule was classed as inactive.
On to `COc1ccc(NC(=O)CSc2nc(-c3cccs3)cc(C(F)(F)F)n2)cc1OC`, for which the “activity change, negative = inhibition” value was inactive: 1.89%.
Consider `O=C(CSc1nc2ccccc2nc1Cc1ccccc1)NCc1ccccc1Cl`, for which the molecule was classed as inactive.
Turning to `COc1ccc(-c2cc(C(=O)O)n(Cc3ccccc3)n2)cc1`, the “activity change, negative = inhibition” value was inactive: -5.85%.
The same measure, in the same setting: in the case of `COc1ccc(C(=O)NC2(C(F)(F)F)C(=O)NC(C)=C2C#N)cc1OC` (stereo not drawn) it was inactive: 6.04%.
As to `CCC(=O)N1CCc2cc(Br)cc(S(=O)(=O)N3CCC(C(=O)Nc4ccc(OC)cc4)CC3)c21`, the call was inactive.
Take `CN1CCc2c(c3ccccc3n2Cc2ccc(C(=O)NO)cc2)C1`: the “activity change, negative = inhibition” value is inactive: -10.4%.
Same read-out and setting: in the case of `CCOc1ccc(CNCc2c(C(=O)O)n(Cc3ccccc3F)c3cc(OC)ccc23)cc1` it was inactive: 2.43%.
On to `CCCCOc1ccc(C(=O)NCCS(=O)(=O)N2CCN(c3ccc(F)cc3)CC2)cc1`, for which the “activity change, negative = inhibition” value was inactive: -0.245%.
On the same count and under the same terms, then `CCc1cnc2c(c1SCC(=O)N1CCCCC1)c(=O)n(C)c(=O)n2C`, with inactive: 6.41%; and `Cc1ccc(C)c(NC(=O)CN2C(=O)CCc3ccccc32)c1`, with inactive: -7.26%.
On the same count and under the same terms, in the case of `COc1ccc(CN(C(=O)COc2ccccc2OC)C2CCS(=O)(=O)C2)cc1` (stereo not drawn) it was inactive: 1.11%; in that of `Cc1cccc(OC(C)C(=O)Nc2ncn[nH]2)c1` (stereo not drawn), inactive: 2.74%.
As for `CCc1ccc(NC(=O)c2ccc3c(O)c(S(=O)(=O)c4ccc(Cl)cc4)c(=O)[nH]c3c2)cc1`, the outcome was inactive.
`CCCCN(CC)CCCNC(=O)c1sc2nc(C)cc(C)c2c1-n1cccc1`: the “activity change, negative = inhibition” value was inactive: 5.25%.
The same measure, in the same setting: then `CCOC(=O)C1CCCN(S(=O)(=O)c2ccc(F)c(C(=O)Nc3ccc(F)c(F)c3)c2)C1` (stereo not drawn), with inactive: -0.104%; and `Cc1cccc2nc(-c3ccco3)c(Nc3ccc4c(c3)OCO4)n12`, with inactive: 21.2%.
The same measure, in the same setting: in the case of `CCN(CC)c1cc(C)c2cc(NC(=O)c3cccc(OC)c3)ccc2n1` it was inactive: -6.58%; in that of `COc1ccc(CNC(=O)c2cc(-c3ccc(OC)cc3)on2)cc1`, inactive: -3.43%; in that of `Cc1nc(SC(C)C(=O)Nc2ccccc2C)cc(-c2ccccc2)n1` (stereo not drawn), inactive: 3.88%.
Consider `Cc1ccc(-n2nnnc2CNC(=O)C(C)(C)C)cc1C`, for which the “activity change, negative = inhibition” value is inactive: -7.86%.
Consider `Cc1ccc(-c2nc3c4ccccc4n(CC(=O)N4CCN(c5ccccc5F)CC4)c(=O)n3n2)cc1`, for which the outcome was inactive.
Turning to `Cc1ccc(NC(=O)CN(C)S(=O)(=O)c2ccc3c(c2)n(C)c(=O)c(=O)n3C)cc1C`, the “activity change, negative = inhibition” value was inactive: -3.67%.
Still for that read-out and setting: then `Cc1ccccc1CNC(=O)c1cnc2sc(N3CCOCC3)nn2c1=O`, with inactive: -2.74%; and `Cc1ccc(C)c(OCCn2c(-c3ccc(Cl)cc3)nc3ccccc3c2=O)c1C`, with inactive: 22.7%; and `CCn1c2ccccc2c2nnc(SCC(=O)O)nc21`, with inactive: -4.16%.
On the same count and under the same terms, then `Cc1ccccc1C(=O)c1cccn1CC(=O)NCc1ccccc1`, with inactive: 8.95%.

(Values after PubChem BioAssay AID1963576 (National Center for Advancing Translational Sciences (NCATS), 2024).)
